Source: the supplement of paper PMC3334620
Whole data set: some 33,000 sequences, median “E-score (-0.5 to 0.5)” near -0.053, cut for the highest 2% near 0.37. This is one part of the list.

Molecular target: Hap1 (UniProt P0CE41)
Assay: PBM E-score (8-mer binding enrichment) (E-score (-0.5 to 0.5)); higher = stronger / more preferred TF binding; most listed sequences are background and not binding sites
Conditions: protein concentration: 200 nM; construct: GST-DNA-binding domain
How it was run: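 Each ungapped eight-base word and its reverse complement, pooled, received an E-score from the Universal PBM Analysis Suite. Underlying scans, normalised with masliner, recorded fluorescent anti-GST bound to GST-tagged yeast transcription factors. These were applied at about 100-200 nM to universal all-10-mer Agilent arrays double-stranded by primer extension.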

Chain of UniProt P0CE41 (P0CE41 whole entry): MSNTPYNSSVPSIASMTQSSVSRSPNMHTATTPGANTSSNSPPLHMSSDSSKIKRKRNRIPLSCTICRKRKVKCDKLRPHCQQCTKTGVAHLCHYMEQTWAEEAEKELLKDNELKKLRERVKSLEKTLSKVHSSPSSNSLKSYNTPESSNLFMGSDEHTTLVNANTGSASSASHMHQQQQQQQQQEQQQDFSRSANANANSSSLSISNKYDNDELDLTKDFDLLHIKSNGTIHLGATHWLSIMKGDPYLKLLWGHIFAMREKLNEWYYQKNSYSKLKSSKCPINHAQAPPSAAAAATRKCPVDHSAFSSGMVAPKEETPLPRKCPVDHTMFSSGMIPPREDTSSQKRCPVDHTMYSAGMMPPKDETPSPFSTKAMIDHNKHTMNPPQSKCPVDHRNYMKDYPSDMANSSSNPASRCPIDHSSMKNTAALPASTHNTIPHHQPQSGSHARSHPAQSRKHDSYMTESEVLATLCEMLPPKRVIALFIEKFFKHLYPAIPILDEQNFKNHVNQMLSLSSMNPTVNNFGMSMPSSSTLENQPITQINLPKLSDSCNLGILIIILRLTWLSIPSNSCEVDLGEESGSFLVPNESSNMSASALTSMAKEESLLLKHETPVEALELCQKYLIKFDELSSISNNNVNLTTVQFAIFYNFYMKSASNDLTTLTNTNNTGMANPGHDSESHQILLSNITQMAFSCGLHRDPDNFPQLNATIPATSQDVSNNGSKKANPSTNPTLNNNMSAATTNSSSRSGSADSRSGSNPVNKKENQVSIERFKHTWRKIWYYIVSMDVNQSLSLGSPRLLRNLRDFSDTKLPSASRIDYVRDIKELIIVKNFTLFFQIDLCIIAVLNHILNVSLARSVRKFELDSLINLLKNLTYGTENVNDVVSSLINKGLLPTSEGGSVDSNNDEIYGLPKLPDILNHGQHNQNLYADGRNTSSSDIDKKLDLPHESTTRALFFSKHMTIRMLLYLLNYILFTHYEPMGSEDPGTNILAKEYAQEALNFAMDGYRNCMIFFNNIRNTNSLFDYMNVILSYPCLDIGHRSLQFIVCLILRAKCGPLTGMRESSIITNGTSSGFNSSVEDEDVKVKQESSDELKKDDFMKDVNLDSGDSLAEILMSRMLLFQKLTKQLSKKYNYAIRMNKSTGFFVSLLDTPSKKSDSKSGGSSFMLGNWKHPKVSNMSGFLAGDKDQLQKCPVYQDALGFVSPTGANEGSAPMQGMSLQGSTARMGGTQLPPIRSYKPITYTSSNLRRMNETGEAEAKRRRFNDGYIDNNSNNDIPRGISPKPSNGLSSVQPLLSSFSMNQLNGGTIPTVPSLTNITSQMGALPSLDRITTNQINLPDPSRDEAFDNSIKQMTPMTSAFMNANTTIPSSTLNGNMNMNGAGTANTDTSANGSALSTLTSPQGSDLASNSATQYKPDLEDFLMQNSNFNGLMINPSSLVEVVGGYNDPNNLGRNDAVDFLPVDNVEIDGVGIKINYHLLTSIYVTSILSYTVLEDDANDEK

Sequence | PBM E-score
CCTATAAG | -0.113
ACAAGTCG | -0.246
ACAGATCC | 0.178
ATTGGCTA | -0.102
CTTTATCC | 0.181
GTAACGTA | -0.188
CAAGCAAC | -0.171
ACCGAAGA | 0.207
CTCGGCAA | 0.258
AATTCTAG | -0.112
ATGATACG | -0.195
CTCTGGCC | -0.0719
GTGACCAA | -0.172
GACGGGAA | 0.0257
GAAGTCCC | -0.0489
CATTTCTA | -0.0138
AGAGTTGA | -0.198
AGATTTCG | 0.229
TGTACCAA | -0.187
ACCGGCCG | 0.439
GAACCCAC | 0.0534
GACGTATC | 0.033

Sequence | PBM E-score
CAATCTCG | 0.00508
AAGGACGA | -0.0846
ATGCTCCA | 0.024
GAATTCGC | 0.103
AAAAGAGG | -0.216
CGACGCCG | 0.246
GCTTTGAC | 0.0793
ACCGACAC | 0.21
ACCGGGCC | 0.373
AGGTATAC | -0.221
TAGTAGGA | -0.15
ACTAACAA | -0.15
TCCAACAA | -0.132
GACGTGCA | -0.0662
CCCTACCC | -0.107
AGATGACT | -0.0956
AATATTCG | 0.0499
AGGCCTCG | 0.00046
GCAAACGC | 0.116
TCAAGTGA | -0.225
CTACGGGC | 0.0493
TCTCAGAA | -0.264

Sequence | PBM E-score
CAATGCGC | -0.0309
TGGGAAAA | -0.0972
AAGCATTA | -0.168
AATATTGA | 0.00924
TAATTGTA | -0.138
AGAACCTC | -0.0701
CTGGGGAA | -0.231
ATCATCAC | -0.31
CCGTAGCG | 0.27
ACACCGTA | 0.106
ACTTCGCA | -0.164
CCTCATCC | -0.13
CAGGTAGC | -0.0526
CGTCTACA | -0.242
AACGGATG | 0.275
TGGCCGAA | 0.261
GTTCGGTA | 0.249
CTCTCATA | -0.105
ACTTTGTG | -0.0673
GTTACATA | -0.0531
ACCAAATA | 0.0853
CGCCACGA | -0.0182

Sequence | PBM E-score
GCCTGCAC | -0.137
ACGCGGGA | 0.14
AGTCGCTC | -0.115
CAGCATTC | -0.162
ACTTCTGG | -0.297
ATCTGAAC | -0.0804
CGATGCTA | 0.0547
CATGACAC | -0.14
CAAGTCTG | -0.366
CCAACATA | 0.0596
CCCTAAGC | -0.179
CGTGCGCA | -0.00181
CAGGGTGA | -0.259
ATCGTCCC | 0.0149
CCCTCCAG | -0.00678
AACCTCGC | -0.0117
GACCGAGA | 0.382
GTTGCCGA | 0.241
AAGCGTCG | -0.0453
CCTACGCA | -0.132
GCCATCAA | -0.408
CGTCTTCC | 0.0353

Sequence | PBM E-score
TAACTTGA | -0.308
AGCCTACT | -0.137
CTCCATTA | -0.0758
AGGCAGCA | -0.0573
AAGGTGAT | -0.114
CGTGCCAG | -0.148
AATATAAT | -0.0851
CCGACGAC | 0.272
ACCACAAA | 0.00509
CCTTAGAC | -0.144
CATTGAAG | -0.193
TTAGCGAA | 0.0366
CGGCTCGC | 0.189
CAGCAAAC | -0.11
CCCTACTA | -0.0173
GATATGTA | 0.021
CGATACGA | 0.196
ACTTTTAT | 0.0486
AATAAGAT | -0.0121
TAGCGTGA | -0.256
TGGGTACA | -0.13
ATCATTTG | 0.0381
